# Measured values from PMC4336329 (PLoS ONE, 2015).
# Among all 310,000 compounds or so, about 14,000 (4.5%) showed an effect of 50% or more. Effects have a minus sign here. The list shows a part of the results.
# Target: human ether-à-go-go-related gene (hERG) potassium channel (human, UniProt Q12809)
# Experiment: primary screen, population patch clamp on CHO cells stably expressing hERG
# 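Further: peak tail current of the secondary pulse compared with the same well before compound.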
# human ether-à-go-go-related gene (hERG) potassium channel, sequence (Q12809 whole entry, looked up): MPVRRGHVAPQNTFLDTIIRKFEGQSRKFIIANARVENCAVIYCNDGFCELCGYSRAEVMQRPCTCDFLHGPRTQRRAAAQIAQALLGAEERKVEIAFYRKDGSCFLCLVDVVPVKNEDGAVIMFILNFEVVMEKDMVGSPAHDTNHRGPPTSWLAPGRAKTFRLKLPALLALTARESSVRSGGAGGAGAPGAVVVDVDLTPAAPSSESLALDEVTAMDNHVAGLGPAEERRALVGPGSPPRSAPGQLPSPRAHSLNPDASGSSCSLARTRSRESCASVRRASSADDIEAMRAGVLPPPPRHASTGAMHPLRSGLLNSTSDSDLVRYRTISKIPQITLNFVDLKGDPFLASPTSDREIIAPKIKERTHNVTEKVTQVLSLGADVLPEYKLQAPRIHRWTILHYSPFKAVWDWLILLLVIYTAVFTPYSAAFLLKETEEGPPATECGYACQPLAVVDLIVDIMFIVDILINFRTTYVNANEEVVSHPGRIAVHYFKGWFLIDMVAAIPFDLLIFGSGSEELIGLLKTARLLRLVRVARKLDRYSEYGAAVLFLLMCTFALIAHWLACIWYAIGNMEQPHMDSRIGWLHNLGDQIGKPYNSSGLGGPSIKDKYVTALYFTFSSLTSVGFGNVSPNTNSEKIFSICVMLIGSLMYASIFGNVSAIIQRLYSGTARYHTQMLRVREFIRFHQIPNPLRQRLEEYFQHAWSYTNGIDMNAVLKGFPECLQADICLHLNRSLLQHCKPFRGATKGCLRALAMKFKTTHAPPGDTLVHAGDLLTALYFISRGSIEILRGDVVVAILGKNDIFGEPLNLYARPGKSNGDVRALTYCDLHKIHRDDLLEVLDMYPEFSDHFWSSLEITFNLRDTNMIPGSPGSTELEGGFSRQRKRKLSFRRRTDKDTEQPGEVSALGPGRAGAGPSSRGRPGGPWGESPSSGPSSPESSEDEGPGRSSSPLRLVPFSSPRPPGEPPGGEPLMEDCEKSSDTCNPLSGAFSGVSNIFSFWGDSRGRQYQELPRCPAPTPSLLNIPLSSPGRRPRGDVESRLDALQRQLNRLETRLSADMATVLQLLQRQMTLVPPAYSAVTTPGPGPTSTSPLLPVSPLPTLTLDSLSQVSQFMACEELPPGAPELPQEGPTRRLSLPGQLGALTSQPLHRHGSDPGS
row,Structure (SMILES),"hERG current change (%, negative = inhibition) at 10uM [%]"
1,CSc1ccccc1NC(=O)Cn1ccsc1=N,33.3
2,C=CCNC(=O)/C(C#N)=C\c1cc(Cl)c(OCC)c(OC)c1,3.59
3,COc1ccc(C(=O)Nc2ccc3ccccc3c2)cc1,20.4
4,Cc1ccc(S(=O)(=O)N(CCO)Cc2cc3ccc(C)c(C)c3[nH]c2=O)cc1,-23.6
5,Cc1ccc(S(=O)(=O)Nc2ccc(NC(=O)CN3CCCCC3)c(Cl)c2)cc1,1.31
6,Cc1ccc(S(=O)(=O)N2CCOCC2)cc1NC(=O)COC(=O)Cn1c(C)csc1=O,11.4
7,COCCCn1c(SCC(=O)Nc2ccccc2)nnc1-c1ccncc1,-6.82
8,Cc1ccccc1NC(=O)CN1C(=O)COc2ccc(S(=O)(=O)N3CCCC3)cc21,21.8
9,COCCn1c(Cc2cccn2C)nnc1SCC(=O)Nc1nccs1,0.101
10,Cc1cc(C)n(-c2nc(SCC(=O)O)c3c4c(sc3n2)CCCC4)n1,6.68
11,Cc1ccccc1NC(=O)Cc1nc(COC(=O)c2cccc([N+](=O)[O-])c2)cs1,-4.6
12,O=S(=O)(NCCn1cccc1)c1ccc2ccccc2c1,4.41
13,O=C(Nc1ccc(Br)c2ccccc12)c1ccc2ccccc2c1O,22.6
14,CCCCCCC(=O)N/N=C/c1c(O)n(CCc2ccccc2)c(=O)[nH]c1=O,1.69
15,COc1ccc(Cl)cc1C(=O)Nc1ccc(CN2CCCCC2)cc1,-52
16,COc1ccc(N2CSC3=C(C#N)C(c4cccc(OC)c4OC)CC(=O)N3C2)cc1 (centres unmarked),7.55
17,Cc1[nH]c2ccccc2c1C(c1ccncc1)N1CCC(C)CC1 (centres unmarked),10.3
18,COc1ccccc1NC(=O)c1cc(C(=O)O)ccc1C(=O)O,20.4
19,O=C(CN(c1ccccc1)S(=O)(=O)c1ccccc1)NCCSc1nc2ccccc2s1,1.28
20,CC(Nc1n[nH]c(=S)[nH]c1=O)C(=O)OCc1ccccc1 (centres unmarked),-0.223
21,CCOC(=O)Cn1c(C)cc(=O)c2ccccc21,-1.93
22,C#CCSc1nc(Cc2ccc(Cl)cc2)nc2ccccc12,35.8

row,Structure (SMILES),"hERG current change (%, negative = inhibition) at 10uM [%]"
1,COc1ccc(C(=O)/C=C/c2ccc(OC)c(Cn3nnc4ccccc43)c2)cc1,-0.745
2,COc1ccc(NS(=O)(=O)c2ccc(F)c(F)c2F)cc1S(=O)(=O)N1CCOCC1,-7.74
3,CCOC(=O)Cc1cn2c(=O)cc(CSCC(=O)Nc3ccc(C)c(C)c3)nc2s1,5.04
4,COc1ccccc1NC(=O)c1ccccc1Oc1ccccc1,11
5,COc1ccccc1CNCC(=O)Nc1ccc(C(F)(F)F)cc1.Cl,-11.9
6,Cc1c(C(=O)NCc2ccco2)oc2c(F)cccc12,1.08
7,Cc1noc(C)c1C(=O)N1CCN(c2ncccn2)CC1,7.26
8,CCC(=O)Nc1ccc(C(=O)OCC(=O)c2ccc(C)c([N+](=O)[O-])c2)cc1,-0.0941
9,CCN(c1ccccc1)S(=O)(=O)c1ccc(C(=O)N(CCN(C)C)c2nc3c(F)cc(F)cc3s2)cc1.Cl,-54.7
10,COc1cc(NC(=O)Cn2c([N+](=O)[O-])cnc2C)c(OC)cc1Cl,10.5
11,O=C(NCCN1CCOCC1)C1CCN(Cc2ccccc2O)CC1,19.2
12,CCOC(=O)COc1ccc(S(=O)(=O)c2ccc(OCC(=O)OCC)cc2)cc1,-6.24
13,C#CCn1cc(/C=C2\NC(=O)NC2=O)c2ccccc21,12.6
14,COC(=O)c1cc(=O)nc2sccn12,1.97
15,COc1ccc(Cc2nnc(NC(=O)c3cccc([N+](=O)[O-])c3)s2)cc1,42.1
16,Cc1ncc([N+](=O)[O-])n1Cc1ccccc1,-3.84
17,CC(=O)Nc1ccc(S(=O)(=O)NCCC(=O)NCC2COc3ccccc3O2)cc1 (centres unmarked),12.8
18,CCOC(=O)c1c(-c2ccc(F)cc2)csc1NC(=O)CCN1CCOCC1.O=C(O)C(=O)O,-48.7
19,O=c1ccnc(SCc2ccccc2Cl)[nH]1,14.7
20,O=C(Cn1c(Cc2ccccc2)nc2ccccc21)NCc1ccc2c(c1)OCO2,-10.6
21,CCCCn1nnnc1NCc1cc(Cl)c(OC)c(OC)c1,-9.65
22,COc1ccc(CC(=O)N2CCCc3ccccc32)cc1OC,4.74

row,Structure (SMILES),"hERG current change (%, negative = inhibition) at 10uM [%]"
1,CC(C)[C@H](N)C(=O)N1CCC(C(=O)N[C@@H](Cc2ccccc2)C(=O)NCc2ccc(F)cc2)CC1,15.7
2,Cc1cccc2cc3c(N)c(C(=O)Nc4ccc(N5CCOCC5)cc4)sc3nc12,2.12
3,CN(C)c1nc(F)c(F)c(S(=O)(=O)c2ccccc2)c1F,-8.33
4,NS(=O)(=O)c1ccc(N=Nc2c(-c3ccccc3)[nH]n(-c3nc(-c4ccccc4)cs3)c2=O)cc1,2.31
5,C[C@@H]1NC(=O)c2cc([N+](=O)[O-])cc(I)c2NCCCC[C@@H](C(N)=O)NC(=O)[C@H](CCC(=O)O)NC1=O,-9.34
6,Cc1ccc(S(=O)(=O)N(C)Cc2ccc(C(=O)N/N=C/c3ccc(OC(F)F)cc3OC(F)F)cc2)cc1,-3.1
7,O=C(Nc1nnc(-c2cccs2)o1)c1cc(-c2ccccc2)nc2ccccc12,-4.92
8,Clc1nccnc1-c1ccccc1,2.2
9,CC(=O)N1CCC(N(CCN2CCOCC2)C(=S)Nc2ccccc2C)CC1,7.98
10,CC(C)(C)OC(=O)NCCCCCNC(=O)c1[nH]cnc1C(=O)Nc1ccc(Cl)cc1,-6.26
11,CC(=O)c1sc(-c2ccc(F)cc2)cc1NS(=O)(=O)c1ccc(C)cc1,7.93
12,COC(=O)C1=C(O)/C(=C\c2ccc(OCC(=O)Nc3ccc(OC)cc3)cc2)N=C1C,18.4
13,Cc1ccc(C(c2nnnn2C(C)(C)C)N2CCC(C)CC2)cc1.Cl (centres unmarked),-16.4
14,Cc1nnc(N2CCOCC2)c2ccccc12,11.1
15,COc1cc(F)c(C2=CC(=O)C[C@H](c3ccc4c(c3)OCO4)C2)cc1F,16.1
16,Cc1ccc(-n2c(=O)cc(N3CCc4ccccc4C3)[nH]c2=O)cc1,-2.39
17,O=C1CCCN1CCC1CCN(C2CC(=O)N(c3ccc(F)cc3)C2=O)CC1 (centres unmarked),-1.11
18,COc1cc(Nc2cc(C)nc3ncnn23)cc(OC)c1,-8.29
19,NC(=O)c1ccc(Br)c(S(=O)(=O)N2CCCCC2)c1,-16.1
20,CC(=O)C(Cc1ccccc1)NC(=O)CCl (centres unmarked),18.3
21,Cc1c(C(=O)NCc2nnc(-c3ccccc3)o2)oc2c(F)cccc12,1.28
22,COc1cccc(C(=O)NCc2ccc3c(c2)OCO3)c1,4.82

row,Structure (SMILES),"hERG current change (%, negative = inhibition) at 10uM [%]"
1,CNC(=O)Oc1ccc(C(=O)N2c3ccccc3NC(=O)C2C)cc1 (centres unmarked),8.73
2,Cc1ccc(NC(=O)CNC(=O)c2ccco2)c(Cl)c1,1.11
3,CCn1nc(C)c(CNC(=O)CC2C(=O)NCCN2CC(C)(C)C)c1C (centres unmarked),9.14
4,CC(=O)c1cccc(NC(=O)NNC(=O)c2ccc3ccccc3c2)c1,2.69
5,O=C(O)C1C2C=CC(C2)C1C(=O)NCCCn1ccnc1 (centres unmarked),-17.7
6,CCCc1ccc(Oc2cc(NN3CCCCC3)c([N+](=O)[O-])cc2[N+](=O)[O-])cc1,-9.7
7,CC1=C(C(=O)Nc2cccc([N+](=O)[O-])c2)C2(CCC(C)CC2)OC1=O (centres unmarked),-2.84
8,CCc1c(C)sc(NC(=O)Cn2nc(C(F)(F)F)c3c2CCCC3)c1C#N,-15.1
9,Cc1cc(C)cc(N(CCC#N)C(=O)COC(=O)C2CCN(S(=O)(=O)c3ccc(C)c(C)c3)CC2)c1,-8
10,O=C(NCCN1CCOCC1)c1cc(Sc2ccccc2Cl)nc2ccccc12,-27.1
11,CC(=O)c1sc(NC(=O)C2(F)C(F)(F)C(F)(F)C(F)(F)C(F)(F)C2(F)F)nc1C,1.32
12,COc1ccc(NC(=O)CSc2nc3c(cc2C#N)CN(C)CC3)cc1,-9.72
13,CCOC(=O)c1c(C)[nH]c(C=Nc2ccc(OC)cc2)c1O,-11.3
14,CCOC(=O)c1[nH]c2cc3c(cc2c1NC(=O)CN1CCC2(CC1)OCCO2)OCO3,4.19
15,Cc1cccc(OCCn2c(S(=O)(=O)O)nc3ccccc32)c1,5.42
16,COc1ccc(-c2[nH]ncc2CN2CCCC(C(=O)c3ccc(OC)cc3OC)C2)cc1 (centres unmarked),-65
17,C#CCOc1ccc(/C=N/NC(=O)c2cccnc2)cc1OCC,3.22
18,CCOc1ccc2nc(SCC(=O)N(CCOC)c3c(N)n(Cc4ccccc4)c(=O)[nH]c3=O)[nH]c2c1,6.86
19,O=C(CCN1CCN(c2ccccc2F)CC1)Nc1cccc(F)c1,-44.2
20,O=C(O)c1ccccc1-c1ncc(-c2ccccc2)o1,6.94
